This passage reports Kd results from US20070142318A1, “Compositions, methods and kits for repressing virulence in gram positive bacteria” (priority 2004, published 2007).

This data set deals with CodY A207V A207V (Bacillus subtilis). Description: EMSA. Particulars: GTP + ILV; also >500 without effectors. For orientation: Mobility shift assays separate free from complexed probe on a gel.

One may read the Kd as the free concentration of one partner at which half of the binding sites on the other are occupied at equilibrium, for simple one-to-one binding. In the case of dpp promoter region, the Kd was greater than 0.5 µM.
